Among the data in PubChem BioAssay AID1745853 (National Center for Advancing Translational Sciences (NCATS), 2022) are activity change, negative = inhibition values, retold here.

Some of the results follow. Shown are side measurements of this screen, not its main read-out; they come without a call.

Common to all, as to assay: Primary Screen for Target Class Profiling of Small Molecule Inhibitors of Methyltransferases
For assay [1], the target named is Glycine N-methyltransferase (Homo sapiens) (UniProt Q14749). Particulars: purified enzyme, MTase-Glo SAH luminescence; measured here: GNMT inhibition; at 40 µM; stronger effect = lower value. An outline of the steps: (§1)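 Each enzyme was reacted with SAM and its substrate, with compounds tested once at 40 uM; SAH formed was read by MTase-Glo luminescence.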
In assay [2] the target is Guanidinoacetate N-methyltransferase (Homo sapiens) (UniProt Q14353). Conditions: purified enzyme, MTase-Glo SAH luminescence; measured here: GAMT inhibition; at 40 µM; stronger effect = lower value. The method, boiled down:
as §1

The target in assay [3] is Histamine N-methyltransferase (Homo sapiens) (UniProt P50135). Particulars: purified enzyme, MTase-Glo SAH luminescence; measured here: HNMT inhibition; at 40 µM; stronger effect = lower value. An outline of the steps:
as §1

Assay [4] has as its target Nicotinamide N-methyltransferase (Homo sapiens) (UniProt P40261). Conditions: purified enzyme, MTase-Glo SAH luminescence; measured here: NNMT inhibition; at 40 µM; stronger effect = lower value. An outline of the steps:
as §1

The target of assay [5] is Phenylethanolamine N-methyltransferase (Homo sapiens) (UniProt P11086). Conditions: purified enzyme, MTase-Glo SAH luminescence; measured here: PNMT inhibition; at 40 µM; stronger effect = lower value. The method, boiled down: as §1
On the % scale 0 is the no-effect control and ±100 the full control effect.

In the case of `Cc1nc(CCNC(=O)c2cnc(-c3cccnc3)nc2)cc(=O)[nH]1`, the activity change, negative = inhibition was -1.44% in assay [1]; -1.96% in assay [2]; 0.506% in assay [3]; -9.3% in assay [4]; -4.25% in assay [5].
Taken in the same sequence, the figures for `CC(C)CCN1C(=O)c2cc3occc3n2CC1(C)C(=O)NC1CCCC(C)C1C` (stereo not drawn) were -7.31%, -5.07%, 3.65%, -7.01% and -7.45%.
Take `CCN1C(=O)c2cc(C(=O)Nc3ccccc3C)nn2CC1(C)C(=O)NC1CCCC1` (stereo not drawn): the activity change, negative = inhibition was -6.84% in assay [1]; -1.29% in assay [2]; -10.4% in assay [3]; -4.85% in assay [4]; -1.93% in assay [5].
For `CCc1c(-c2ccccc2)c(-c2ccccc2)nn1-c1ccccc1-c1cccc(OCC(=O)O)c1` the same measures were -5.24%, 16.2%, 7.95%, -67.7% and 4.22%.
Taken in the same sequence, the figures for `CN(CC1CCOC1)C(=O)Cc1ccccc1` (stereo not drawn) were -2.05%, 4.09%, 2.39%, 1.56% and 13.6%.
As for `CCOc1ccc(CN2C(=O)c3ccc(-c4ccco4)n3CC2(C)C(=O)NC2CCCCCC2)cc1` (stereo not drawn), the activity change, negative = inhibition in assay [1] is -9.24%; in assay [2] it was 4.37%; in assay [3], 1.81%; in assay [4], -12.3%; in assay [5], -3.49%.
For `CCOc1ccc(C(=O)Cn2nc3n(Cc4ccc(F)cc4)c(=O)c4ccccc4n3c2=O)cc1` the same measures were 3.78%, 5.28%, 6.47%, -0.182% and 2.83%.
Taken in the same sequence, the figures for `CC1(C(=O)NC2CCCCCC2)Cn2c(c(-n3cccc3)c3cc(F)ccc32)C(=O)N1Cc1ccccc1` (stereo not drawn) were -3.41%, -2.93%, -1.53%, -2.65% and 0.752%.
Turning to `CC1=CCC[C@@H]2[C@@](C)(CCc3ccoc3)[C@H](C(=O)O)CC[C@@]12C`, the activity change, negative = inhibition in assay [1] was -4.93%; in assay [2], -5.51%; in assay [3], 4.82%; in assay [4], -18.8%; in assay [5] it was -6.41%.
As to `Cc1nccn1CC(=O)N1CCCn2cc(-c3cccc(C#N)c3)nc21`, the activity change, negative = inhibition in assay [1] is -7.1%; in assay [2], -6.05%; in assay [3], -34.6%; in assay [4] it was -13.7%; in assay [5], -7.42%.
Taken in the same sequence, the figures for `CC12CCC3c4ccc(O)cc4CCC3C1CC(OC1OC(C(=O)O)C(O)C(O)C1O)C2O` (stereo not drawn) were -17.8%, -4.3%, 13.3%, -14.2% and 2.82%.
Regarding `CCCn1c(=O)c2cc(F)ccc2n2c(SCc3ccc(F)cc3)nnc12`, the activity change, negative = inhibition in assay [1] is -10.2%; in assay [2] it was 1.8%; in assay [3], 5.83%; in assay [4], -6.15%; in assay [5] it was 2.41%.
For `O=C(Cn1nc2n(CCc3ccccc3)c(=O)c3ccccc3n2c1=O)NCc1ccccc1` the same measures were 5.26%, 0.749%, 12.2%, 3.86% and 4.35%.
For `COc1cccc(C2c3cccn3-c3sc4c(c3CN2C(=O)Nc2ccccc2)CCCC4)c1` (stereo not drawn) the same measures were 1.39%, 2.04%, 8.7%, 1.89% and 5.37%.
`COc1cc(C[C@H]2C(=O)OC[C@@H]2Cc2ccc(OC)c(OC)c2)ccc1O`: the activity change, negative = inhibition was 5.06% in assay [1]; 4.07% in assay [2]; 10.4% in assay [3]; -8.1% in assay [4]; 1.21% in assay [5].
Taken in the same sequence, the figures for `CC1CCC(NC(=O)C2(C)Cn3c(ccc3-c3ccccc3)C(=O)N2CCCc2ccccc2)CC1` (stereo not drawn) were 10.5%, 0.421%, 6.14%, 5.95% and 3.54%.
For `Brc1cccc(-c2nnn3c2nc(NC2CCCC2)c2ccccc23)c1` the same measures were -4.5%, 2.78%, 2.06%, -5.5% and -5.53%.
For `CC[C@H]1CN(C(=O)c2ccnc(Cl)c2)CC[C@H]1CC(=O)N1CCC(C(N)=O)CC1` the same measures were -3.25%, -3.91%, -0.788%, -3.46% and -1.4%.
Turning to `CCOC(=O)C1CCCN(c2nc3c(S(=O)(=O)c4ccc(C)cc4)nnn3c3ccccc23)C1` (stereo not drawn), the activity change, negative = inhibition in assay [1] is -2.81%; in assay [2], 2.52%; in assay [3], 4.83%; in assay [4], 3.92%; in assay [5] it was 1.36%.
As for `O=S(=O)(N[C@H]1[C@H](O)[C@H](O)C[C@@H]1c1ccc(C(F)(F)F)nc1)c1ccc(Cl)cc1`, the activity change, negative = inhibition was -2.56% in assay [1]; -2.66% in assay [2]; 0.275% in assay [3]; -7.34% in assay [4]; 28.4% in assay [5].
As for `O=S(=O)(Cc1ccccc1)N1CCC(n2cnnc2C2CC2)CC1`, the activity change, negative = inhibition is -0.584% in assay [1]; -3.65% in assay [2]; 0.607% in assay [3]; -8.27% in assay [4]; -2.81% in assay [5].
Regarding `CC1CCN(S(=O)(=O)c2ccc3c(ccn3CCC(=O)NCCc3ccccc3)c2)CC1`, the activity change, negative = inhibition in assay [1] was -1.94%; in assay [2] it was 2.83%; in assay [3], -3.87%; in assay [4], -6.07%; in assay [5] it was -1.82%.
Taken in the same sequence, the figures for `Cc1csc2c(NCCC3CN(c4cnn(C)c(=O)c4)CCO3)ncnc12` (stereo not drawn) were -35%, -16.1%, -15.1%, -36.4% and -25.3%.
In the case of `Oc1c(C(c2ccccc2)N2CCC(O)CC2)sc2nc(-c3ccco3)nn12` (stereo not drawn), the activity change, negative = inhibition in assay [2] was 8.73%; in assay [4] it was -6.58%; in assay [5], 5.36%.
`Cc1cc(CN2CCC3(CC2)CN(C2CCC2)CC3CO)n(C)n1` (stereo not drawn): the activity change, negative = inhibition in assay [1] was -6.25%; in assay [2], -11%; in assay [3], -7.59%; in assay [4], -14%; in assay [5], -7.51%.
For `CC(C)CCn1c(=O)c2ccc(C(=O)NC3CCCC3)cc2n2c(=O)n(Cc3ccc(Cl)cc3)nc12` the same measures were 6.13%, 0.638%, 8.05%, 3.22% and 6.69%.
For `C/C=C/C=C/C(=O)O[C@@H]1C=C2COC(=O)[C@]2(O)[C@@]2(C)CCCC(C)(C)[C@H]12` the same measures were 0.343%, 4.79%, 4.95%, -16.3% and -4.14%.
Taken in the same sequence, the figures for `C[C@@]12CC[C@@H]3[C@@](CC[C@H]4[C@@]3(C)CCC[C@@]4(C)C(=O)O)(CC1=O)C2` were -4.91%, -7.23%, -2.44%, -24.4% and -9.57%.
In the case of `CCOCCCNC(=O)c1c(C)noc1-c1ccc(OC(F)(F)F)cc1`, the activity change, negative = inhibition was -5.07% in assay [1]; 0.601% in assay [2]; 0.334% in assay [3]; -3.78% in assay [4]; 1.03% in assay [5].
With `COc1ccc(CNC(=O)CCn2ccc3cc(S(=O)(=O)N4CCCCC4)ccc32)c(OC)c1`, the activity change, negative = inhibition was -4.03% in assay [1]; 0.646% in assay [2]; -8.76% in assay [3]; -21.3% in assay [4]; -3.86% in assay [5].
